The source gives no read counts; variants with many changes may rest on few reads.
B1: LINE1-full (parent)
chain: UACGUAGGUGGUUUUCCCCUGAUAGUGCUAAGGGGGCCUGGAAGUUUGGACUGGGCAGAGCUCAACACAGCGUGGCAAAGUGGCUGUGGCUAGACUGCCUCUCUGGAUUCCUCGUCACUCAGCAGGGCAUCUCUGAGAGAAAUGCC

Variants of: B1
Assay: self-cleavage, relative activity (ratio to wild type); higher = more cleavage; in vitro, sequencing; the parent is a self-cleaving ribozyme

Row | Variant | self-cleavage
1 | UACGUAGGUGGUUUUCCCCUGACAGUGCUAGGGGGGCCUGGAAGUUUGGACUGGGCAGAGCUCAACACAGCGUGGCAAAGUGGCUGUGGCUAGACUGCCUCUCAGGAUUCCUCGACACUCAGCAGGGCAUCUCUGAGAGAAAUGCC | 1.27
2 | UACGUAGGUGGUUUUCCCCUGACAGUGCUAUGGGGGCCUGGAAGUUUGGACUGGGCAGAGCUCAACACAGCGUGGCAAAGUGGCUGUGGCUAGACUGCCUCUCUGGAUUCCUCGUCACUCCGCAGGGCAUCUCUGAGAGAAAUGCC | 1.62
3 | UACGUAGGUGGUUUUCCCCUGACAGUGCUAUGGGGGCCUGGAAGUUUGGACUGGGCAGAGCUCAACACAGCGUGGCAAACUGGCUGUGUCUAGACUGCCUCUCUGGAUUCCUCGUCACUCAGCAGGGCAUCUCUGAGAGAAAUGCC | 0.04
4 | UACGUAGGUGGUUUUCCCCUGACAGUGCUAAGGGGGCCUGGGAGUUUGGUCUGGGCAGAGCUCAACACAGCGUGGCAAAGUGGCUGUGGCUAGACUGCCCCUCUGGAUUCCUCGUCACUCAGCAGGGCAUCUCUGAGAGAAAUGCC | 1.88
5 | UACGUAGGUGGUUUUCCCCUGACAGUGCUAAGGGGGCCUGGGAGUUUGGACUGGGCAGAGCUCAACACAGCGUGGCAAAGUGGCUGUGGCUAGACCGCCUCUCUGGAUUCCUCGUCACUCAGCAGGGCAUCUCUGAGAGAAAUGCC | 0.45
6 | UACGUAGGUGGUUUUCCCCUGACAGUGCUAAGGGGGCCUGGAAGUUUGGACUGGGCGGAGCUCAACACGGCGUGGCAAAGUGGCUGUGGCUAGACUGCCUCUCUGGAUUCCUCGUCACUCAGCAGGGCAUCUCUGAGAGAAAUGCC | 1.02
7 | UACGUAGGUGGUUUUCCCCUGACAGUGCUAAGGGGGCCUGGAAGUUUGGACUGGGCGGAGCUCAACACAGCGUGGCUAAGUGGCUGUGGCUAGACUGCCUCUCUGGAUUCCUCGUCACUCAGCAGGGCAUCUCUGAGAGAAAUGCC | 0.6
8 | UACGUAGGUGGUUUUCCCCUGACAGUGCUAAGGGGGCCUGGAAGUUUGGACUGGGCAGGGCUCAACACAGCGUGGCAAAGUGGCUGUGGCUAGACUGCCUCUCUGGAUUCCUCGUCACUCAGCAGGGCAUUUCUGAGAGAAAUGCC | 0.06
9 | UACGUAGGUGGUUUUCCCCUGACAGUGCUAAGGGGGCCUGGAAGUUUGGACUGGGCAGGGCUCAACACAGCGUGGCAAAGUGGCUGUGGCUAGACUGCCUCUCUGGAUUCCUCGACACUCGGCAGGGCAUCUCUGAGAGAGAUGCC | 0.26
10 | UACGUAGGUGGUUUUCCCCUGACAGUGCUAAGGGGGCCUGGAAGUUUGGACUGGGCAGAGCUCGACACAGCGUGGCAAAGUGGCCGUGGCUAGACUGCCUCUCUGGAUUCCUCGUCACUCAGCAGGGCAUCUCUGAGAGAAAUGCC | 0.22
11 | UACGUAGGUGGUUUUCCCCUGACAGUGCUAAGGGGGCCUGGAAGUUUGGACUGGGCAGAGCUCAGCACAGCGUGGCAAAGUGGCUGUGGCUAGACUGCCUCUCUGGAUUCCUCGUCACUUAGCAGGGCAUCCCUGAGAGAAAUGCC | 0.08
12 | UACGUAGGUGGUUUUCCCCUGACAGUGCUAAGGGGGCCUGGAAGUUUGGACUGGGCAGAGCUCAUCUCAGCGUGGCAAAGUGGCUGUGGCUAGACUGCCUCGCUGGAUUCCUCGUCACUCAGCAGGGCAUCUCUGAGAGAAAUGCC | 0.15
13 | UACGUAGGUGGUUUUCCCCUGACAGUGCUAAGGGGGCCUGGAAGUUUGGACUGGGCAGAGCUCAACGCAGCGUGGCAAAGUGGCUGUGGCUAGACUGCCUCUCUGGAUUCCUCGUCACUCAGCGGGGCAUCUCUGAGAGGAAUGCC | 0
14 | UACGUAGGUGGUUUUCCCCUGACAGUGCUAAGGGGGCCUGGAAGUUUGGACUGGGCAGAGCUCAACGCAGCGUGGCAAAGUGGCUGUGGCUAGACUGCCUCUCUGGAUUCCUCGCCACUCAGCAGGGCAUCUCUGAGAGAAAUGCC | 0
15 | UACGUAGGUGGUUUUCCCCUGACAGUGCUAAGGGGGCCUGGAAGUUUGGACUGGGCAGAGCUCAACACGGCGUGGCAAAGUGGCUGUGGCUAGACUGCCUCUCUGGAUUCCUCGUCGCUCAGCAGGGCAUCUCUGAGAGAAAUGCC | 2.3
16 | UACGUAGGUGGUUUUCCCCUGACAGUGCUAAGGGGGCCUGGAAGUUUGGACUGGGCAGAGCUCAACACGGCGUGGCAAAGUGGCUGUGGCUAGACUGCCUCUCUGGAUUCCUCGUCACUCAGCAGGACAUCUCUGAGAGAAAUGCC | 0.42
17 | UACGUAGGUGGUUUUCCCCUGACAGUGCUAAGGGGGCCUGGAAGUUUGGACUGGGCAGAGCUCAACACUGCGUGGCAAAGUGGCUGUGGCUAGACUGCCUCUCUGGACUCCUCGUCACUCAGCAGGGCAUCUCUGAGAGAAAUGCC | 0.1
18 | UACGUAGGUGGUUUUCCCCUGACAGUGCUAAGGGGGCCUGGAAGUUUGGACUGGGCAGAGCUCAACACAGCGUGGCGAAGUGGCUGUGGCUAGACUGCCUCUCUGGAUUCCUCGUCACUCAGCAGGGCAUCUCUGAGAGAAGUGCC | 2.69
19 | UACGUAGGUGGUUUUCCCCUGACAGUGCUAAGGGGGCCUGGAAGUUUGGACUGGGCAGAGCUCAACACAGCGUGGCGAAGUGGCUGAGGCUAGACUGCCUCUCUGGAUUCCUCGCCACUCAGCAGGGCAUCUCUGAGAGAAAUGCC | 0
20 | UACGUAGGUGGUUUUCCCCUGACAGUGCUAAGGGGGCCUGGAAGUUUGGACUGGGCAGAGCUCAACACAGCGUGGCAGAGUGGCUGUGGCUAGACUGCCUCUCAGGAUUCCUCGUCACUCAGCAGGGCAUCUCUGAGAGAAAUGCC | 1.07

Row | Variant | self-cleavage
21 | UACGUAGGUGGUUUUCCCCUGACAGUGCUAAGGGGGCCUGGAAGUUUGGACUGGGCAGAGCUCAACACAGCGUGGCAAAGUGGCUGUGGCUGGACUGCCUCCCUGGAUUCCUCGUCACUCAGCAGGGCAUCUCUGAGAGAAAUGCC | 0
22 | UACGUAGGUGGUUUUCCCCUGACAGUGCUAAGGGGGCCUGGAAGUUUGGACUGGGCAGAGCUCAACACAGCGUGGCAAAGUGGCUGUGGCUAGACUGCCUCUCUGGAUUCCUCGUCACUCAGCAGGGCGUCUCCGAGAGAAAUGCC | 1.79
23 | UACGUAGGUGGUUUUCCCCUGACAGUGCUAAGGGGGCCUGGAAGUUUGGACUGGGCAGAGCUCAACACAGCGUGGCAAAGUGGCUGUGGCUAGACUGCCUCUCUGGAUUCCUCGUCACUCAGCAGGGCAUCUCUGAGAGGAGUGCC | 1.63
24 | UACGUAGGUGGUUUUCCCCUGACAAUGCUAAGAGGGCCUGGAAGUUUGGACUGGGCAGAGCUCAGCACAGCGUGGCAAAGUGGCUGUGGCUAGACUGCCUCUCUGGAUUCCUCGUCACUCAGCAGGGCAUCUCUGAGAGAAAUGCC | 0.11
25 | UACGUAGGUGGUUUUCCCCUGACAGUGCUAAGUGGGCCUGGAAGUUUGGACUGGGCAGAGCUCAACACAGCGUGGCAAAGUGGCUGUGGCUAGACUGCCUCUCAGGAUUCCUCGUCUCUCAGCAGGGCAUCUCUGAGAGAAAUGCC | 1.11
26 | UACGUAGGUGGUUUUCCCCUGACAGUGCUAAGGUGGCCUGGAAGUUUGGACUGGGCAGAGCUCAACACAGCGUGGCAAAGUGGCUGUGGCUAGACUGCCUCUCUGGAUUCCUCGUCACUCAGCAGGGCACCUCUGAGAGAAAUGCC | 0.95
27 | UACGUAGGUGGUUUUCCCCUGACAGUGCUAAGGGAGCUUGGAAGUUUGGACUGGGCAGAGCUCAACACAGCGUGGCAAAGUGGCUGCGGCUAGACUGCCUCUCUGGAUUCCUCGUCACUCAGCAGGGCAUCUCUGAGAGAAAUGCC | 0.22
28 | UACGUAGGUGGUUUUCCCCUGACAGUGCUAAGGGGACCUGGAAGUUUGGACUGGGCAGAGCUUAACACAGCGUGGCAAAGUGGCUGUGGCUAGUCUGCCUCUCUGGAUUCCUCGUCACUCAGCAGGGCAUCUCUGAGAGAAACGCC | 0.11
29 | UACGUAGGUGGUUUUCCCCUGACAGUGCUAAGGGGGCCUAGAAGUUUGGACAGGGCAGAGCUCAACACAGCGUGGCAAAGUGGCUGUGGCUAGACUGCCUCUCUGGGUUCCUCGUCACUCAGCAGGGCAUCUCUGAGAGAAGUGCC | 2.08
30 | UACGUAGGUGGUUUUCCCCUGACAGUGCUAAGGGGGCCUGGAAGUUUGGACUGAGCAGAGCUCAACACGGCGUGGCAAAGUGGCUGUGGCUAGACUGCCUCUCGGGAUUCCUCGUCACUCAGCAGGGCAUCUCUGAGGGAAAUGCC | 0.13
31 | UACGUAGGUGGUUUUCCCCUGACAGUGCUAAGGGGGCCUGGAAGUUUGGACUGGGCAGAGCUCAACACAGCGUGACAAAGUGGCUGUGGCUAGACUGCCUCACUGGAUUCCUCGUCACUCAGCAGGGCAUCUCUGAGAGAAAUGCC | 0
32 | UACGUAGGUGGUUUUCCCCUGACAGUGCUAAGGGGGCCUGGAAGUUUGGACUGGGCAGAGCUCAACACAGCGUGGCAAAGUAGCUGUGGCAAGACUGCCUCUCUGGAUUCCUCGUCACCCAGCAGGGCAUCUCUGAGAGAAAUGCC | 1.36
33 | UACGUAGGUGGUUUUCCCCUGACAGUGCUAAGGGGGCCUGGAAGUUUGGACUGGGCAGAGCUCAACACAGCGUGGCAAAGUGGCUGUGGCUAGACUGCCUCUCUGAAUUCCUCGUCACUCUGCAGGGCAUCUCUGAGAGAAAUGCC | 1.52
34 | UACGUAGGUGGUUUUCCCCUGACAGAGCUAAGGGGGCCUGGAAGUUUGGACUGGGCAGAGCUCAACACAGCGUGGCAAAGUGGCUGUGGCUAGACUGCCUCUCUGGAUUCCUCGUCACUUAGCAGGGCAUCUCUGAGAGAAAUGCC | 1.65
35 | UACGUAGGUGGUUUUCCCCUGACAGCGCUAAGGGGGCCUGGAAGUUUGGACUGGGCGGAGCUCAACACAGCGUGGCAAAGUGGCUGUGGCUAGACUGCCUCUCUGGAUUCCUCGUCACCCAGCAGGGCAUCUCUGAGAGUAAUGCC | 0
36 | UACGUAGGUGGUUUUCCCCUGACAGCGCUAAGGGGGCCUGGAAGUUUGGACUGGGCAGGGCUCAACACAGCGUGACAAAGUGGCCGUGGCUAGACUGCCUCUCUGGAUUCCUCGUCACUCAGCAGGGCAUCUCUGAGAGAAAUGCC | 0
37 | UACGUAGGUGGUUUUCCCCUGACAGCGCUAAGGGGGCCUGGAAGUUUGGACUGGGCAGAGCUCAACACAGCGUGGCAAAGUGGCUGUGGCUAGACUGCCUCUCUGGAUUCCUCGUCACUCAGCAGGGCAUCUCUGAGGGAAAUGCC | 1.15
38 | UACGUAGGUGGUUUUCCCCUGACAGCGCUAAGGGGGCCUGGAAGUUUGGACUGGGCAGAGCUCAAUACAGCGUGGCAAAGUGGCUGUGGCUAGACUGCCUCCCUGGAUUCCUCGUCACUCAGCGGGGCAUCUCUGAGAGAAAUGCC | 0
39 | UACGUAGGUGGUUUUCCCCUGACAGCUCUAAGGGGGCCUGGAAGUUUGGACUGGGCAGGGCUCAACACAGCGUGGCAAAGUGGCUGUGGCUAGACUGCCUCUCUGGAUUCCUCGUCACUCAGCAGGGCAUCUUUGAGAGAGAUGCC | 0.19

From the RNAGym collection of RNA variant scans (doi:10.7554/elife.90254)
